Single values of this set are uncertain.
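Further: [psi-pin-] Saccharomyces cerevisiae expressing SupN fusions, induced by 100 µM Cu2SO4, selected 7 d at 30 °C without adenine and uracil, scored by deep sequencing of output versus input.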

The first data set can be described thus: amyloid nucleation score relative to library mode (yeast Sup35 reporter selection) (log enrichment difference); higher = more amyloid nucleation; sequences are the first 22 residues of the Bri2 peptide extended by up to 12 random residues. As to conditions: random library (experiment): 1;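 active = nucleation score significantly above 0 at FDR 0.05; inactive = not significantly above 0 or absent from output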.
With EASNCFAIRHFENKFAVETLICEMVTAFRRCETL, the amyloid nucleation score result is “inactive”. With EASNCFAIRHFENKFAVETLICEMWKNAKGARCR, the amyloid nucleation score entry was “inactive”. Still for that read-out and setting: then EASNCFAIRHFENKFAVETLICENCTTSWPRSWG, with 2.61. EASNCFAIRHFENKFAVETLICENFFIVVEACWH: the amyloid nucleation score was 4.41. Still for that read-out and setting: then EASNCFAIRHFENKFAVETLICENRRARPSSGGC, with “inactive”. In the case of EASNCFAIRHFENKFAVETLICENV, the amyloid nucleation score was found to be 0.539. For EASNCFAIRHFENKFAVETLICENVIRIHFQVHR, the amyloid nucleation score entry was “inactive”. Take EASNCFAIRHFENKFAVETLICENWMQVGSKLQC: the amyloid nucleation score result is “inactive”. EASNCFAIRHFENKFAVETLICEP: the amyloid nucleation score result was “inactive”. Take EASNCFAIRHFENKFAVETLICEPCMRPYLSARR: the amyloid nucleation score result was “inactive”. For EASNCFAIRHFENKFAVETLICEPDASSVILAQW, the amyloid nucleation score result is “inactive”.

On to EASNCFAIRHFENKFAVETLICEPFEARVFCLGW, for which the amyloid nucleation score is 5.65. In the case of EASNCFAIRHFENKFAVETLICEPGGVMAERGAR, the amyloid nucleation score entry is “inactive”. As for EASNCFAIRHFENKFAVETLICEPGIRIYGRVIA, the amyloid nucleation score is 2.64. Take EASNCFAIRHFENKFAVETLICEPLSKRNRMFDD: the amyloid nucleation score result is “inactive”. On to EASNCFAIRHFENKFAVETLICEPNRYSRGLVGF, for which the amyloid nucleation score result is “inactive”. Sequence EASNCFAIRHFENKFAVETLICEPSMGFGCGVDG came in with an amyloid nucleation score of 5.56. The same measure, in the same setting: with EASNCFAIRHFENKFAVETLICEPSRIGRLFGEG the entry was “inactive”. EASNCFAIRHFENKFAVETLICEQAW: the amyloid nucleation score entry was “inactive”.

Staying with this data set, now noted: random library (experiment): 2.
Regarding EASNCFAIRHFENKFAVETLICEMYLFMPPFVLN, the amyloid nucleation score came out at 4.39. On to EASNCFAIRHFENKFAVETLICENAFRTRVILSQ, for which the amyloid nucleation score entry was “inactive”.

For the sequence EASNCFAIRHFENKFAVETLICENFIKNEVRI, the amyloid nucleation score worked out at 8.84. Same read-out and setting: then EASNCFAIRHFENKFAVETLICENNKGLCLMGSV, with “inactive”; and EASNCFAIRHFENKFAVETLICENSYSFFVVQVY, with “inactive”.

For EASNCFAIRHFENKFAVETLICEPHALT, the amyloid nucleation score entry was “inactive”. With EASNCFAIRHFENKFAVETLICEPLVAYVYMLVF, the amyloid nucleation score entry is “inactive”. For EASNCFAIRHFENKFAVETLICEPSMLSVDDMFV, the amyloid nucleation score result is “inactive”. For EASNCFAIRHFENKFAVETLICEPV, the amyloid nucleation score result is “inactive”.

Turning to EASNCFAIRHFENKFAVETLICEPWIIFTHLMSR, the amyloid nucleation score entry is “inactive”. Consider EASNCFAIRHFENKFAVETLICEPYDCGRKTVGL, for which the amyloid nucleation score result is “inactive”. Take EASNCFAIRHFENKFAVETLICEQFCLSGEDVIG: the amyloid nucleation score entry is “inactive”.

The data set is the same for the next values; noted with them: random library (experiment): 3.
For EASNCFAIRHFENKFAVETLICEMRSKCCHRGGR, the amyloid nucleation score was 3.42. On to EASNCFAIRHFENKFAVETLICEMTWMKG, for which the amyloid nucleation score result is “inactive”.

For the sequence EASNCFAIRHFENKFAVETLICEN, the amyloid nucleation score entry is “inactive”. For the sequence EASNCFAIRHFENKFAVETLICEPCQCRYCLTAN, the amyloid nucleation score entry was “inactive”. For the sequence EASNCFAIRHFENKFAVETLICEPLWHSSRTKVS, the amyloid nucleation score result is “inactive”. Regarding EASNCFAIRHFENKFAVETLICEPMANNLMGK, the amyloid nucleation score entry was “inactive”. Consider EASNCFAIRHFENKFAVETLICEPNRLQRLFWES, for which the amyloid nucleation score result was “inactive”. Take EASNCFAIRHFENKFAVETLICEPQTSDGARPVR: the amyloid nucleation score result is “inactive”.

Turning to EASNCFAIRHFENKFAVETLICEQCLGHPRLVVT, the amyloid nucleation score entry is “inactive”. On the same count and under the same terms, then EASNCFAIRHFENKFAVETLICEQFGRYVAVSQW, with “inactive”.

Values taken from the supplement of paper PMC12067230.
